B1: CPEB3 Ribozyme (parent)
chain: UAACAGGGGGCCACAGCAGAAGCGUUCACGUCGCAGCCCCUGUCAGAUUCUGGUGAAUCUGCGAAUUCUGCUGUAUAUCUC

Read counts are not given, so values of variants with three or more changes are uncertain.

Variants of B1 are the subject of the data set. As to the kind of experiment: self-cleavage, relative activity (ratio to wild type); higher = more cleavage; in vitro, sequencing. The essentials:
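CPEB3 self-cleaving ribozyme mutant libraries were made by rounds of error-prone PCR, barcoded, and transcribed in vitro with T7 RNA polymerase for 5 hours at 37°C. Cleavage occurred during transcription and a 15 min DNase I step before EDTA stop. RNAs were reverse transcribed with template switching and Illumina-sequenced, with DNA sequencing mapping barcodes to variants. Relative activity is the variant's cleaved/total read fraction divided by wild type's (minimum 5 reads), averaged across three batches.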
For G19C U41A A47G C59A, the self-cleavage came out at 0.07.

A20G A21U U31G U48C: the self-cleavage was determined as 0.24.

Take A20G A35U U78C: the self-cleavage was 0.42.

Regarding A20G A21G C23A U26A, the self-cleavage turned out to be 0.47.

Regarding G19C U25C G36A U51G U60A A64G, the self-cleavage was determined as 0.08.

Turning to A20G A28G A65G C68A, the self-cleavage was found to be 0.23.

A20G A28U A57G U78C: the self-cleavage is 0.34.

Regarding G19U U25C U41C, the self-cleavage amounted to 0.14.

For A20G A21G U54G U69C U76C, the self-cleavage is 0.15.

With A20G A28C A65U, the self-cleavage was found to be 0.23.

Consider A20C A47G A56G U74A, for which the self-cleavage is 0.34.

Regarding G19C U49A C81A, the self-cleavage is 0.05.

Turning to G19U A21G A35U U54C, the self-cleavage came to 0.06.

In the case of A20G A21G C27U U31C A75G, the self-cleavage is 0.21.

For A20G A21G U49C C50U A57G U58C, the self-cleavage is 0.08.

For the variant G19U A20G G33C U43A U60A, the self-cleavage stood at 0.14.

With A20G A28G U41C G61U A64G A77G, the self-cleavage is 0.17.

With A20C A57G U67C, the self-cleavage came to 0.09.

Regarding G19U U26C A35G U43C A56G, the self-cleavage turned out to be 0.08.

Turning to A20G A35G U51C U69G, the self-cleavage came to 0.79.

Turning to G19U A28G A57G, the self-cleavage turned out to be 0.18.

Take A20G A28G A35U U76C: the self-cleavage is 0.6.

On to A20G A21G U48C A57G U67C, for which the self-cleavage worked out at 0.18.

G19C U25A C71A U74C: the self-cleavage amounted to 0.03.

As to A20G A21G U43C U69C, the self-cleavage is 0.33.

On to G19A U26A U31C U67C, for which the self-cleavage stood at 0.09.

On to A20G A21G U51A A64G, for which the self-cleavage was 0.46.

Regarding G19A U48C U60A C81A, the self-cleavage was found to be 0.3.

As for G19U U25C A35G A45U U49C A64G U72A, the self-cleavage was 0.04.

Regarding A20G A28G A35U A45U U54A, the self-cleavage was found to be 0.07.

G19U U49C U72C G73A: the self-cleavage came to 0.18.

A20G A35G U66A: the self-cleavage is 1.06.

With G19U U26C A65G, the self-cleavage turned out to be 0.16.

Take G19U A47G A75G: the self-cleavage turned out to be 0.42.

For G19C C29A A45G U76C A77G, the self-cleavage was 0.12.

On to A20G A35U C62U A65U U69C U80C, for which the self-cleavage was 0.09.

On to A20C A75U A77G, for which the self-cleavage is 0.35.

Turning to A20G A35G U72C, the self-cleavage was 1.27.

A20C A45C A65G U67A U76C: the self-cleavage is 0.23.

A20G A21G U49A U69C: the self-cleavage came to 0.2.

With A20G A35G U41C U43C U72C U80C, the self-cleavage turned out to be 1.4.

Consider A20G A21G A35U U43C, for which the self-cleavage was 0.07.

In the case of G19U A35G U66C, the self-cleavage is 0.27.

Consider A20C U49C U60C A65G U78C, for which the self-cleavage is 0.09.

Turning to G19U C38U U48C C50U U60A, the self-cleavage amounted to 0.04.

Turning to A20G A28U U54C U60C A75U, the self-cleavage is 0.19.

For A20G A35G U43C A57G U76C, the self-cleavage was 0.5.

With G19U G36A U43A A56G U67C U78C U80C, the self-cleavage came to 0.07.

For the variant A20G A35U A47G A64G U78C, the self-cleavage amounted to 0.44.

On to G19A U41A G46A U58A A77G, for which the self-cleavage is 0.07.

G19C U49A A75U U78A: the self-cleavage is 0.09.

A20G A28U A35U A57G: the self-cleavage is 0.21.

Regarding G19U U25C C40A G53U G70U, the self-cleavage stood at 0.1.

Turning to A20G A35G U41C U48C U60A U78C, the self-cleavage amounted to 0.34.

A20C C23U U51A: the self-cleavage was determined as 0.22.

Turning to G19U A28C C29U G33A U41C A45G, the self-cleavage turned out to be 0.06.

On to G19U G30U U69A, for which the self-cleavage turned out to be 0.15.

Consider A20C G24A U26G A45U C59U, for which the self-cleavage came out at 0.04.

As to G19U U41G A45G U72C U80G, the self-cleavage turned out to be 0.16.

As for G19U C44A A75G, the self-cleavage worked out at 0.26.

With G19U A45U U54A, the self-cleavage worked out at 0.17.

Regarding G19C G30U A64G, the self-cleavage amounted to 0.23.

With G19A U48C U74A, the self-cleavage came to 0.41.

As for A20G A21G U51C A75G, the self-cleavage was found to be 0.31.

For the variant G19U A20U A65G, the self-cleavage turned out to be 0.24.

G19C A20U U51C G63C C71A: the self-cleavage worked out at 0.08.

As to A20C A21U U66A U72C, the self-cleavage was 0.12.

Consider A20G A35C A56G U67A A77G, for which the self-cleavage came out at 0.35.

As for G19U A45C U72C U80A, the self-cleavage came out at 0.25.

For G19A U49C U54G, the self-cleavage turned out to be 0.08.

Consider A20G A28G G55U U66C, for which the self-cleavage is 0.12.

As for G19A U26C G42A U51C, the self-cleavage came out at 0.07.

With G19C U26C A28U U49C A65G, the self-cleavage was 0.07.

Regarding A20G A35G U51C U58G U80C, the self-cleavage was found to be 0.81.

Regarding G19U A35U U43C U48C A57G, the self-cleavage is 0.13.

For the variant G19U A56G A57G A77U, the self-cleavage turned out to be 0.07.

As for G19U C50A A75U, the self-cleavage worked out at 0.25.

In the case of A20G A28G U80C, the self-cleavage was determined as 0.57.

Consider A20C U26C C27U U78C, for which the self-cleavage worked out at 0.08.

A20C A35U U41C A64U: the self-cleavage worked out at 0.1.

As for A20G A21G C29G U78C, the self-cleavage amounted to 0.04.

In the case of G19U A21G U74G, the self-cleavage is 0.72.

For the variant A20G A21G A57G U67G, the self-cleavage amounted to 0.12.

For G19A U25C U72C, the self-cleavage came out at 0.42.

The values are drawn from the RNAGym collection of RNA variant scans (doi:10.1093/nar/gkz1192).
